Reference: publication PMC4336329 (PLoS ONE, 2015)
Screen size: about 310,000 compounds; about 14,000 (4.5%) showed an effect of 50% or more. Effects have a minus sign here. The list shows a part of the results.

What follows are compounds tested against human ether-à-go-go-related gene (hERG) potassium channel (human, UniProt Q12809) (assay: primary screen, population patch clamp on CHO cells stably expressing hERG).
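Note: peak tail current of the secondary pulse compared with the same well before compound.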

Sequence of human ether-à-go-go-related gene (hERG) potassium channel (Q12809 whole entry, looked up): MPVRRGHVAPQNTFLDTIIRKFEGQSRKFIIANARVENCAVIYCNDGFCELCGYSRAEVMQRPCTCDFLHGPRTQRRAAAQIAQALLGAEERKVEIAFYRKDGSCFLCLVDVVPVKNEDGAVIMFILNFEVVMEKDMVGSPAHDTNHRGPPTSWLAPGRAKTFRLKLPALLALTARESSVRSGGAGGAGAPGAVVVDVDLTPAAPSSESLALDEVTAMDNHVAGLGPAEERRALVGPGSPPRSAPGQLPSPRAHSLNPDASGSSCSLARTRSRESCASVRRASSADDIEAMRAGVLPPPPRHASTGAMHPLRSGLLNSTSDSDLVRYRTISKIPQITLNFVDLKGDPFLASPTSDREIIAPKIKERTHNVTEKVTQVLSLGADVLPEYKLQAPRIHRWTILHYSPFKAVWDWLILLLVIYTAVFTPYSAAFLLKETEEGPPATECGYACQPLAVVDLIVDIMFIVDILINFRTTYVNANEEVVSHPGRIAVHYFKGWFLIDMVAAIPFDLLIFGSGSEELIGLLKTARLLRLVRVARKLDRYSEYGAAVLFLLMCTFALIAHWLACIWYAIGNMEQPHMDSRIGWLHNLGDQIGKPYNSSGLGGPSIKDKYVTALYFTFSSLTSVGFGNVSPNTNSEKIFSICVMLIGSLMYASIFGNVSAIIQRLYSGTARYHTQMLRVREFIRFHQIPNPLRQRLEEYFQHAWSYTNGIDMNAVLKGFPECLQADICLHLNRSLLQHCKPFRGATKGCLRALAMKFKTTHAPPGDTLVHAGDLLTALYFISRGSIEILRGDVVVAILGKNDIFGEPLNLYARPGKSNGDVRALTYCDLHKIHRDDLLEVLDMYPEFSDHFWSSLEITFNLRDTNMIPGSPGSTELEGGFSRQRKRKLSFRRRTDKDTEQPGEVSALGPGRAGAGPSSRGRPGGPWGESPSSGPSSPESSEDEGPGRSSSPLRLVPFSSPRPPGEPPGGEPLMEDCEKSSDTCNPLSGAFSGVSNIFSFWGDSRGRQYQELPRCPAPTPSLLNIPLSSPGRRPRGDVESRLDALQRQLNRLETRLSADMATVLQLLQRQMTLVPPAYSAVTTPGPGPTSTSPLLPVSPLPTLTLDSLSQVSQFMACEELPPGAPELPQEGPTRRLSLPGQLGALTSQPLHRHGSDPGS

SMILES	hERG current change (%, negative = inhibition) at 10uM [%]
Cc1cc(C)n(/N=C/c2ccc(O)cc2)c(=O)c1C#N	17.1
O=C(NC1CCC1)C1CCC(=O)N(Cc2cccc(F)c2)C1 (stereo not shown)	-3.14
O=C(COC(=O)CCC(=O)c1ccccc1)Nc1nnc(-c2ccccc2)o1	5.91
Cc1ccc(Cl)cc1NC(=O)COc1ccccc1	8.86
O=C(CN1CCCC1c1cccs1)N1CCN(S(=O)(=O)c2cccc(F)c2)CC1 (stereo not shown)	-19
COC/C=C/C1=CC2=CC(=O)C(C)(OC(=O)c3cnc4ccccc4n3)C(=O)C2=CN1CCN1CCOCC1 (stereo not shown)	15
COc1ccccc1NC(=O)CSc1nnc(C2CCCCC2)n1-c1ccccc1	-31.3
CC(C)(C)C(=O)Nc1ccc(C(=O)Nc2cccnc2)cc1	10.4
Cc1cc(Cl)ccc1C(=O)C1CCCN(C(=O)c2cnn(C(C)C)c2)C1 (stereo not shown)	-17.7
C/C(=N/NC(=O)c1ccc(Br)o1)c1cccc(NC(=O)c2ccc(F)cc2)c1	-58.9
CN1CCN(/N=C/c2ccc(OCc3ccccc3)cc2)CC1	-21.9
CN(C)N=C1c2cc(S(=O)(=O)N3CCOCC3)ccc2-c2ccc(S(=O)(=O)N3CCOCC3)cc21	-0.734
Cc1ccc(S(=O)(=O)N2CCN(C(=O)CCC(=O)N3CCc4ccccc43)CC2)cc1	-62.2
COc1ccc(CSCCN)cc1Cl.Cl	6.78
Cc1cccc(Oc2ccc(NS(=O)(=O)c3ccc(C)c(C(=O)O)c3)cc2)c1	4.58
COc1ccc(/C=C/C(=O)OCC(=O)Nc2ccc3[nH]c(=O)[nH]c3c2)cc1OC	-5.5
C/C(=N\NC(=O)c1ccoc1C)c1ccccc1O	-35.1
COc1ccc2oc(C(=O)OCC(=O)N3CCCC(C)C3)c(C)c2c1 (stereo not shown)	-39.4
CSc1ccccc1C(=O)Nc1ccc2c(c1)OCO2	1.15
Cc1ncoc1C(=O)N1CCc2c([nH]c3ccccc23)C1c1ccccc1F (stereo not shown)	-21.3
COc1cc(C(=O)NNC(=O)Nc2ccc([N+](=O)[O-])cc2)cc(OC)c1OC	5.5
CN(c1ccccc1)S(=O)(=O)c1cccc(C(=O)NNC(=O)c2ccccc2)c1	-1.79
COc1cc(S(=O)(=O)Nc2ccc(C)cc2)ccc1NC(=O)c1ccncc1	-19.7
Cc1c(C(=O)O)c(=O)n(-c2ccccc2)n1-c1ccccc1	-4.59
NC(N)=N/N=C/c1ccc(Cl)c([N+](=O)[O-])c1	-38.6
c1ccc(-c2ccc3c(n2)CCCO3)cc1	-5.08
CCOC(=O)CSc1nnc(C)n1N	11.5
CCC(=O)N1CCc2cc(S(=O)(=O)CCC(=O)NCCc3ccccc3)ccc21	5.88

SMILES	hERG current change (%, negative = inhibition) at 10uM [%]
Cc1noc(/C=C/N(C)C)c1S(=O)(=O)N1CCCC(C(=O)Nc2ccc3c(c2)OCO3)C1 (stereo not shown)	8.23
CCO[C@@H]1OC(C(=O)NCc2ccccc2)=C[C@H](C(C)(C)C)[C@H]1CCCO	-10.5
N#Cc1ccccc1NC(=O)COC(=O)CCc1ccccc1	-14.9
Cc1ccc(C)c(N(C(=O)Cn2nnc(-c3cccs3)n2)C(C(=O)NC2CCCC2)c2ccncc2)c1 (stereo not shown)	7.32
COc1ccc([C@H]2CC(=O)C=C(c3cccc4c3sc3ccccc34)C2)cc1OC	10.6
CP(=O)(Nc1ccccc1)C(Cl)(Cl)Cl (stereo not shown)	13.8
COc1c(/C=N/NC(=O)c2ccncc2)c(CCN(C)C(C)=O)cc2c1OCO2	11.8
CC(C)CCOP(=O)(c1ccccc1)c1ccccc1	-16.8
O=C1Nc2cc(Cl)ccc2C1(N1CCNCC1)C(F)(F)F (stereo not shown)	-10.6
COc1ccc(-n2nc3c(c2NC(=O)c2ccc(Br)o2)CS(=O)(=O)C3)cc1	-16.4
CCCc1[nH]nc2c1C(c1cccnc1)C(C#N)=C(N)O2 (stereo not shown)	7.87
CCOC(=O)C1(CCCc2ccccc2)CCN(C(=O)CCCn2cncn2)CC1	-44.1
COc1ccc(-c2cn3cccnc3n2)cc1NC(=O)C1CC1	-13.1
Cc1cnc(C(=O)Nc2nnc(C)s2)cn1	8.05
COCC(=O)Nc1cc(OC)cc(OC)c1	0.286
O=[N+]([O-])c1ccc(C(O)CN2CCN(Cc3ccccc3)CC2)cc1 (stereo not shown)	-73.4
Cc1ccc(N2C(=O)C3C4C=CC(CNC(=S)N5CCN(c6ccccn6)CC5)(O4)C3C2=O)cc1 (stereo not shown)	-5.41
O=C(NNC(=O)c1ccccc1-c1ccccc1C(=O)O)c1cccc([N+](=O)[O-])c1	-22.1
CC(C)c1ccccc1OCC(=O)N(C)CC(=O)Nc1ccc(F)cc1	-28.1
CCOc1ncccc1C(=O)OCC(=O)N(CC(C)C)C1CCS(=O)(=O)C1 (stereo not shown)	3.36
COc1ccc(C(=O)COC(=O)C(CC(C)C)N2C(=O)c3ccccc3C2=O)cc1 (stereo not shown)	-5.93
COc1cc(NC(=O)c2ccco2)ccc1NC(=O)c1ccccc1Cl	-15.4
CCOC(=O)C(C)On1c(-c2ccccc2)nc2ccc([N+](=O)[O-])cc21 (stereo not shown)	-51.3
COc1cc(OC)cc(C(=O)NC(C(=O)Nc2ccc3nc(C)sc3c2)C(C)C)c1 (stereo not shown)	2.05
Cc1nn(-c2ccccc2)c(Cl)c1C(=O)OCC(=O)N(C)c1c(N)n(Cc2ccccc2)c(=O)[nH]c1=O	-1.04
CC(C)OCCCn1c(=O)c2ccccc2n2c(CCC(=O)O)nnc12	29.3
COc1ccc(CNC(=O)COC(=O)CCn2c(C)csc2=O)cc1OC	-17.2
